PubChem BioAssay AID686978 (National Center for Advancing Translational Sciences (NCATS), 2013)
Several values for one entry are separate records, joined by “and”; a condition that tells them apart may be missing. Equal values may be shown once. Hit rate of the full screen: of about 420,000 compounds, about 64,000 (15%) were called active. This list was built around the results that the source calls inconclusive (neither active nor inactive); the mix of calls is not that of the screen. Calls follow the shape of the dose curve; as a rule, active = well fitted inhibition curve with a large enough effect; inconclusive = small, poorly fitted or top-dose-only effect; inactive = flat fitted curve, though single readings scatter. No potency is given beside an inconclusive call; the fits are too rough.

Assay: qHTS for Inhibitors of human tyrosyl-DNA phosphodiesterase 1 (TDP1): qHTS in cells in absence of CPT; also: nearly all actives have a fitted effect of over 55% in size
Details: DT40 Tdp1-/- hTDP1 cells, no CPT, ATP luminescence, 48 h; activity change, negative = growth inhibition: at 46.2 µM (top of the series) unless noted
Procedure, shortened: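 A cellular qHTS used chicken DT40 cells lacking endogenous Tdp1 but carrying stably transfected human TDP1. Compounds were applied without camptothecin, and cell growth kinetics were judged by ATP-dependent luminescence after ≥48 hr.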
% is scaled to controls: 0 for no effect and ±100 for the full control effect; potency is read from the fitted curve at half-maximal effect; tags tell the direction and shape of the fitted curve.

| Structure (SMILES) | Potency | activity change, negative = growth inhibition |
| --- | --- | --- |
| N#Cc1nn(-c2c(Cl)cc(C(F)(F)F)cc2Cl)c(N)c1S(=O)C(F)(F)F (stereo unspecified) | active: 5.31 µM and active: 18.4 µM and active: 8.57 µM |  |
| CC(Cc1ccccc1)NCc1ccccc1O (stereo unspecified) | inactive |  |
| CC1C(=O)OC2C1CC[C@@]1(C)C=CC(=O)[C@@]3(C)O[C@@]213 (stereo partly specified) | inconclusive [inhibitor, single point] |  |
| O=C(O)c1ccccc1Nc1cccc(C(F)(F)F)c1 | active: 9.2 µM and active: 15 µM |  |
| Cn1c(O)c(C=Nc2ccc3c(c2)CCC3)c(=O)n(C)c1=O | inactive |  |
| Cc1nnc2n1-c1sc(Br)cc1C(c1ccccc1Cl)=NC2 | inconclusive [inhibitor, single point] |  |
| O=C(CCc1nc(-c2ccccc2F)no1)N1CCC2(CC1)OCCO2 | inconclusive [inhibitor, full curve, poor fit] |  |
| C[C@H]1CC[C@@]2(C)[C@@H](CC[C@@H]3[C@@H]2CC[C@]2(C)[C@@H](O)CC[C@@H]32)C1 | inconclusive [inhibitor, partial curve, poor fit] |  |
| Cc1ccc(N)c(C(=O)c2ccc(Br)cc2)c1 | inconclusive [inhibitor, single point] |  |
| O=C(N/N=C/c1c(O)n(Cc2ccccc2)c(=O)[nH]c1=O)c1ccccc1 | inactive |  |
| CN1C(=O)C(=Cc2ccc(N3CCCCC3)o2)C(=O)N(C)C1=S | inconclusive [inhibitor, single point] |  |
| [Cl-].[Cl-].[Hg+2] | active: 0.335 µM |  |
| CCC(=O)OC1(Cc2ccc(CC)cc2)CC(C)N(C)CC1C (stereo unspecified) | inactive |  |
| COc1ccc(CN2CCNCC2)cc1 |  | inconclusive: -31% [inhibitor] |
| CC1COC2=C1C(=O)C(=O)c1c2ccc2c1CCCC2(C)C (stereo unspecified) | active: 13 µM |  |
| COC(=O)[C@@]1(C)[C@H]2C(=O)N(Cc3ccccc3)C(=O)[C@H]2[C@H]2CN=C(SCc3ccc(Cl)cc3)N21 | inconclusive [inhibitor, single point] |  |
| Fc1cccc(CNCCc2c[nH]c3ccccc23)c1 | inconclusive [inhibitor, single point] |  |
| NP(=O)(OCC(F)(F)F)Oc1cccc2ccccc12 (stereo unspecified) | inactive |  |
| CCN(CC)C(=O)c1ccc(NC(=O)Cn2nc(C)c3ccccc3c2=O)cc1 | inactive |  |
| C[C@H]1C=CC(=O)O[C@H]1c1ccccc1 | inconclusive [inhibitor, single point] |  |
| O=C(CN1CCN(C(=O)CNC(=O)c2ccc(-c3ccccc3)cc2)CC1)Nc1ccccc1Cl | active: 13 µM |  |
